# Test results from publication PMC4336329 (PLoS ONE, 2015).
# In all, about 310,000 compounds went through this assay and about 14,000 (4.5%) showed an effect of 50% or more. Effects have a minus sign here. Some of the results follow.
# Target: human ether-à-go-go-related gene (hERG) potassium channel (human, UniProt Q12809)
# Assay: primary screen, population patch clamp on CHO cells stably expressing hERG
# 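Further: peak tail current of the secondary pulse compared with the same well before compound.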
# human ether-à-go-go-related gene (hERG) potassium channel, sequence (Q12809 whole entry, looked up): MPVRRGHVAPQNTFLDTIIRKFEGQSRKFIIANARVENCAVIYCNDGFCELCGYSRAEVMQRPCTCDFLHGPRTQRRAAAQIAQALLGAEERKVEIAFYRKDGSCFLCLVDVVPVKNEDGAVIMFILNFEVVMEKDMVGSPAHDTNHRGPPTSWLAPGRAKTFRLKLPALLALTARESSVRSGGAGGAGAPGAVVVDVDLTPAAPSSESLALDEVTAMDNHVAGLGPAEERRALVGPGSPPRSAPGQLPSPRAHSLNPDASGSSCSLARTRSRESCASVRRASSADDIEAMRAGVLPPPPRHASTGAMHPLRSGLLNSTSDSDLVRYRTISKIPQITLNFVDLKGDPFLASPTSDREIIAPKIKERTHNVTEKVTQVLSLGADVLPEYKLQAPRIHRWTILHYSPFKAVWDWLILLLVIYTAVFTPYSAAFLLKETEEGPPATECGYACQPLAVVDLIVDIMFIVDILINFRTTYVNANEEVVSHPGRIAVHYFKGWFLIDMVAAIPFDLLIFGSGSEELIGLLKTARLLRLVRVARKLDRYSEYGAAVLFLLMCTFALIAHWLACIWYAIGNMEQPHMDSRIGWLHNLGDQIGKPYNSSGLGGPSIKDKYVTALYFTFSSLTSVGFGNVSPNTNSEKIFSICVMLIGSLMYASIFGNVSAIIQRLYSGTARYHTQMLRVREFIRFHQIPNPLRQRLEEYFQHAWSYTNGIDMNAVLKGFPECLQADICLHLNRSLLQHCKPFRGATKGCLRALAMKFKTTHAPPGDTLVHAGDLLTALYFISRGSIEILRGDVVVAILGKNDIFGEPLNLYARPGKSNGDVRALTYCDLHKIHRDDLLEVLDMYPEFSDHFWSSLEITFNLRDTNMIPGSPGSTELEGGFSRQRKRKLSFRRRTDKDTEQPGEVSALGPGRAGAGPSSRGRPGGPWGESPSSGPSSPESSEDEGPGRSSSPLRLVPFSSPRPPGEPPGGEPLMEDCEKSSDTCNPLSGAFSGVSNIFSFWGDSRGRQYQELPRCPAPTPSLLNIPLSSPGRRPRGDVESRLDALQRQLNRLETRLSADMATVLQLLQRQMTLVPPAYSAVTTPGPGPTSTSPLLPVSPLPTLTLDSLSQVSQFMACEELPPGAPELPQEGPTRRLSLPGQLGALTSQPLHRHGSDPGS
row,Structure (SMILES),"hERG current change (%, negative = inhibition) at 10uM"
1,O=c1c2ccccc2[nH]c(=S)n1CCCN1CCN(c2ccccc2F)CC1,-2.57%
2,O=C(N/N=C/c1ccccn1)c1cc(-c2ccc(Cl)cc2)nc2ccccc12,-10.4%
3,CCc1nc(N2CCN(C(=O)c3ccccc3)CC2)c2c3c(sc2n1)CCCC3,-12.2%
4,CN1[C@@H]2CC[C@H]1CC(OC(=O)C1C=Nc3ccccc31)C2.Cl (some centres unmarked),-38.7%
5,CCc1ccccc1NC(=O)CNC(=O)CCNC(=O)Nc1ccccc1,-9.35%
6,CCC1=C(OC(=O)N(CC)CC)N2C(=O)OC(=NCCc3c[nH]c4ccccc34)[C@]2(C)[C@H]2C1=CC[C@H]1C(=O)N(CC(=O)OC)C(=O)[C@H]12,-2.11%
7,Cc1cccc2nc(-c3ccco3)oc(=O)c12,25.4%
8,Cc1ccnc(NC(=O)c2ccc(NS(=O)(=O)/C=C/c3ccccc3)cc2)c1,-6.2%
9,CC(=O)Nc1ccc(NC(=O)C(C)OC(=O)CCCOc2ccc(Cl)c(C)c2)cc1 (centres unmarked),24.9%
10,CCOC(=O)c1cc2sccc2n1CC(=O)N1CCc2ccccc21,1.9%
11,O=C(Nc1cccc(S(=O)(=O)N2CCCCC2)c1)C1CC(=O)N(Cc2ccccc2)C1 (centres unmarked),-23.9%
12,O=C(c1cc(-c2ccc(Br)cc2)on1)N1CCc2ccccc2C1,21.7%
13,O=C(Nc1ccncc1)c1ccccc1[N+](=O)[O-],25.4%
14,Cc1cc(C)cc(NC(=O)C2CC(=O)n3ncnc3N2)c1 (centres unmarked),3.95%
15,CC1CCCC(NC(=O)CCCn2ncn3c(cc4occc43)c2=O)C1C (centres unmarked),-4.88%
16,COC(=O)c1ccccc1NS(=O)(=O)c1ccc2c3c(cccc13)C(=O)N2,-2.31%
17,Br.C=CCN1CCc2cc(O)c(O)cc2C(c2ccccc2)C1 (centres unmarked),-23.9%
18,CCN(C(=O)c1ccccc1)c1ccc([N+](=O)[O-])cc1,-24.3%
19,COCCCN(CCNC(=O)c1ccc(NC2=NC3CS(=O)(=O)CC3S2)cc1)Cc1ccco1 (centres unmarked),-4.81%
20,COc1ccc(CCNC(=O)CSCc2c(F)cccc2Cl)cc1OC,-2.8%
21,COc1ccc(S(=O)(=O)NC2CCCC2)cc1C(N)=O,4.15%
22,O=c1n(-c2cccc(Cl)c2)c(=O)n2n1CCC2,-6.81%

row,Structure (SMILES),"hERG current change (%, negative = inhibition) at 10uM"
1,CC(C)OC(=O)CSc1nnc(-c2ccc(Cl)cc2Cl)o1,-7.24%
2,COc1ccc(/C(C)=N/Nc2nc(C)cc(-c3ccccc3)n2)cc1,11.5%
3,COCc1cc(C(C)=O)ccc1OCC(=O)Nc1ccc(NC(C)=O)cc1,22.3%
4,Cc1ccc2cc(CN(Cc3ccco3)C(=O)c3ccccc3)c(=O)[nH]c2c1C,7.42%
5,CCN(CC)S(=O)(=O)c1cccc(C(=O)Nc2ccc(S(=O)(=O)NC3=NCCCCC3)cc2)c1,0.391%
6,CCOc1ncccc1C(=O)Nc1cccc(-c2nc3cccnc3s2)c1,5.74%
7,COc1ccc(CCNS(=O)(=O)c2ccc(Br)s2)cc1,-5.73%
8,COc1cccc(CN2CC(C(=O)NC3CCC(O)CC3)CCC2=O)c1 (centres unmarked),9.7%
9,Cc1nn(C(=O)CCC(=O)NCc2ccc(OC(C)C)cc2)c2ccccc12,11.2%
10,COc1ccccc1C1C([N+](=O)[O-])=C(N)Oc2c1c(=O)oc1ccccc21 (centres unmarked),13.2%
11,CC1=CC(C)(C)[N+](C)(C)c2ccc(C)cc21.[I-],15.5%
12,CCc1cc(=O)[nH]c(SCc2cccnc2)n1,15.6%
13,CCOC(=O)c1ccc(-c2c(-c3ccc(OC)cc3)oc(=O)c3cc(OC)c(OC)cc23)cc1F,13.1%
14,Cc1cc(C(=O)O)c(C)n1C1CC1,31.8%
15,[O-][n+]1ccccc1SCc1ccccc1,9.4%
16,C=CCOc1nc2c(c(=O)n(C)c(=O)n2C)n1Cc1ccccc1Cl,-6.73%
17,O=C(CCCN1C(=O)c2cccc3cccc(c23)C1=O)N1CCN(Cc2ccc3c(c2)OCO3)CC1,-21.3%
18,COc1ccc(-c2nc(C(N)=O)c3[nH]c(=O)n(-c4ccccc4OC)c3n2)c(OC)c1,-1.91%
19,CCCCCC[N+](C)(C)CC/C=C1/c2ccccc2Sc2ccc(Cl)cc21.[Br-],-75.2%
20,CC1(C)CC(=O)C(=Cc2cn(CCC#N)nc2-c2ccc(Cl)cc2)C(=O)C1,-12.1%
21,CCOC(=O)c1c(NC(=O)Nc2ccc(Cl)cc2)sc(C)c1C,3.38%
22,CCOc1ccc(C(=O)OCC(=O)c2c(N)n(C)c(=O)n(C)c2=O)cc1OCC,6.21%
